Assay results published in patent US5550212A, “Analogues of hGH-RH(1-29)NH2 having antagonistic activity” (The Administrators of the Tulane Educational Fund, priority 1993, dated 1996).
At least one peptide structure holds a part that was inferred or is arguable (an end, a ring closure or a residue). Starred links: 1 amine or outer side, 2 acyl side, 3 side chain; linkers in the order of their positions; H or OH if unused. Non-standard residues stand in square brackets, D forms with d. Residues, ends and D or L forms follow the SMILES beside them. *: point of attachment. Tpi = O=C(O)[C@@H]1Cc2c([nH]c3ccccc23)CN1; Phe(4-Cl) = N[C@@H](Cc1ccc(Cl)cc1)C(=O)O; Glutaryl = O=C(CCCC(=O)[*:2])[*:1]; Isobutyryl = CC(C)C(=O)*; Nle = CCCC[C@H](N)C(=O)O; Abu = CC[C@H](N)C(=O)O; Aib = CC(C)(N)C(=O)O; X2 = O=C(CI)*

Test system: hGH-RH(1-29)NH2 induced GH release
Assay: Superfused rat pituitary system: inhibition of hGH-RH(1-29)NH2 induced GH release
Format: cell-based
Settings: for Inhibition of GH release (%) 0 min: 0 min response; for Inhibition of GH release (%) 30 min: 30 min response; for Inhibition of GH release (%) 60 min: 60 min response
Experimental: Superfused Rat Pituitary System. The analogues were tested in vitro in a test described earlier (S. Vigh and A. V. Schally, Peptides 5:241-[…], 1984) with modification ([…] and […]. 90:2146-2149, 1993). Briefly, the cells are preincubated with peptides for 9 minutes (3 mL) at various concentrations. Immediately after the incubation, 1 nM hGH-RH(1-29)NH2 is administered for 3 minutes (1 mL) [0 minute response]. To check the duration of the antagonistic effect of the analogue, 1 nM hGH-RH(1-29)NH2 is applied 30, 60, 90, and 120 minutes later for 3 minutes [30, 60, 90, 120 min responses]. Net integral values of the GH responses are evaluated. GH responses are compared to and expressed as percent of the original GH response induced by 1 nM GH-RH(1-29)NH2. The effect of the new antagonists are compared to that of [Ac-[…] ]hGH-RH(1-29)NH2, the "Standard antagonist". Growth Hormone Radio-immunoassay. Rat GH levels in aliquots of undiluted and diluted superfusion samples were measured by double-antibody radioimmunoassay using materials supplied by the National Hormone and Pituitary Program, Baltimore, Md. The results of RIA were analyzed with a computer program developed in our institute (V. Csernus and A. V. Schally, Harwood Academic (Greenstein, B. C. ed., London, pp. 71-109, 1991), hereby incorporated by reference. Inter-assay variation was less than 15% and intra-assay variation was less than 10%.

## CCCC[C@H](NC(=O)[C@@H](NC(=O)[C@H](CC(=O)O)NC(=O)[C@H](CCC(N)=O)NC(=O)[C@H](CC(C)C)NC(=O)[C@H](CC(C)C)NC(=O)[C@H](CCCCN)NC(=O)[C@H](CCCNC(=N)N)NC(=O)[C@H](C)NC(=O)[C@H](CO)NC(=O)[C@H](CC(C)C)NC(=O)[C@H](CCC(N)=O)NC(=O)[C@H](CC)NC(=O)[C@H](CC(C)C)NC(=O)[C@@H](NC(=O)[C@H](CCCCN)NC(=O)[C@H](CCCNC(=N)N)NC(=O)[C@H](Cc1ccc(O)cc1)NC(=O)[C@H](CO)NC(=O)[C@H](CC(N)=O)NC(=O)[C@@H](NC(=O)[C@H](Cc1ccc(Cl)cc1)NC(=O)[C@@H](NC(=O)[C@H](C)NC(=O)[C@H](CC(=O)O)NC(=O)[C@@H](CCCNC(=N)N)NC(=O)[C@H](Cc1c[nH]cn1)NC(C)=O)[C@@H](C)CC)[C@@H](C)O)C(C)C)[C@@H](C)CC)C(=O)N[C@@H](CO)C(=O)N[C@@H](CCCNC(=N)N)C(N)=O [Peptide 2] (Ac-H[dR]DAI[Phe(4-Cl)]TNSYRKVL[Abu]QLSARKLLQDI[Nle]SR-NH2)
Dose 30 nM
  Inhibition of GH release (%) 0 min: 23.1%
  Inhibition of GH release (%) 30 min: 6%

## CCCC[C@H](NC(=O)[C@@H](NC(=O)[C@H](CC(=O)O)NC(=O)[C@H](CCC(N)=O)NC(=O)[C@H](CC(C)C)NC(=O)[C@H](CC(C)C)NC(=O)[C@H](CCCCN)NC(=O)[C@H](CCCNC(=N)N)NC(=O)[C@H](C)NC(=O)[C@H](CO)NC(=O)[C@H](CC(C)C)NC(=O)[C@H](CCC(N)=O)NC(=O)[C@H](CC)NC(=O)[C@H](CC(C)C)NC(=O)[C@@H](NC(=O)[C@H](CCCCN)NC(=O)[C@H](CCCNC(=N)N)NC(=O)[C@H](Cc1ccc(O)cc1)NC(=O)[C@H](CO)NC(=O)[C@H](CC(N)=O)NC(=O)[C@@H](NC(=O)[C@H](Cc1ccc(Cl)cc1)NC(=O)[C@@H](NC(=O)[C@H](C)NC(=O)[C@H](CC(=O)O)NC(=O)[C@@H](CCCNC(=N)N)NC(=O)[C@H](Cc1c[nH]cn1)NC(=O)C(C)C)[C@@H](C)CC)[C@@H](C)O)C(C)C)[C@@H](C)CC)C(=O)N[C@@H](CO)C(=O)N[C@@H](CCCNC(=N)N)C(N)=O [Peptide 3] (Isobutyryl-H[dR]DAI[Phe(4-Cl)]TNSYRKVL[Abu]QLSARKLLQDI[Nle]SR-NH2)
Dose 30 nM
  Inhibition of GH release (%) 0 min: 80.7%
  Inhibition of GH release (%) 30 min: 16.4%
  Inhibition of GH release (%) 60 min: 0%

## CCCC[C@H](NC(=O)[C@@H](NC(=O)[C@H](CC(=O)O)NC(=O)[C@H](CCC(N)=O)NC(=O)[C@H](CC(C)C)NC(=O)[C@H](CC(C)C)NC(=O)[C@H](CCCCN)NC(=O)[C@H](CCCNC(=N)N)NC(=O)[C@H](C)NC(=O)[C@H](CO)NC(=O)[C@H](CC(C)C)NC(=O)[C@H](CCC(N)=O)NC(=O)[C@H](CC)NC(=O)[C@H](CC(C)C)NC(=O)[C@@H](NC(=O)[C@H](CCCCN)NC(=O)[C@H](CCCNC(=N)N)NC(=O)[C@H](Cc1ccc(O)cc1)NC(=O)[C@H](CO)NC(=O)[C@H](CC(N)=O)NC(=O)[C@@H](NC(=O)[C@H](Cc1ccc(Cl)cc1)NC(=O)[C@@H](NC(=O)[C@H](C)NC(=O)[C@H](CC(=O)O)NC(=O)[C@@H](CCCNC(=N)N)NC(=O)[C@H](Cc1c[nH]cn1)NC(=O)CI)[C@@H](C)CC)[C@@H](C)O)C(C)C)[C@@H](C)CC)C(=O)N[C@@H](CO)C(=O)N[C@@H](CCCNC(=N)N)C(N)=O [Peptide 4] (X2-H[dR]DAI[Phe(4-Cl)]TNSYRKVL[Abu]QLSARKLLQDI[Nle]SR-NH2)
Dose 30 nM
  Inhibition of GH release (%) 0 min: 0%
  Inhibition of GH release (%) 30 min: 0%
  Inhibition of GH release (%) 60 min: 0%

## CCCC[C@H](NC(=O)[C@@H](NC(=O)[C@H](CC(=O)O)NC(=O)[C@H](CCC(N)=O)NC(=O)[C@H](CC(C)C)NC(=O)[C@H](CC(C)C)NC(=O)[C@H](CCCCN)NC(=O)[C@H](CCCNC(=N)N)NC(=O)[C@H](C)NC(=O)[C@H](CO)NC(=O)[C@H](CC(C)C)NC(=O)[C@H](CCC(N)=O)NC(=O)[C@H](CC)NC(=O)[C@H](CC(C)C)NC(=O)[C@@H](NC(=O)[C@H](CCCCN)NC(=O)[C@H](CCCNC(=N)N)NC(=O)[C@H](Cc1ccc(O)cc1)NC(=O)[C@H](CO)NC(=O)[C@H](CC(N)=O)NC(=O)[C@@H](NC(=O)[C@H](Cc1ccc(Cl)cc1)NC(=O)[C@@H](NC(=O)[C@H](C)NC(=O)[C@H](CC(=O)O)NC(=O)[C@@H](CCCNC(=N)N)NC(=O)CCCC(=O)O)[C@@H](C)CC)[C@@H](C)O)C(C)C)[C@@H](C)CC)C(=O)N[C@@H](CO)C(=O)N[C@@H](CCCNC(=N)N)C(N)=O [Peptide 6, Glt^1,D-Arg^2,Phe(pCl)^6,Abu^15,Nle^27]hGH-RH(1-29)NH2] (Glutaryl-[dR]DAI[Phe(4-Cl)]TNSYRKVL[Abu]QLSARKLLQDI[Nle]SR-NH2)
Dose 30 nM
  Inhibition of GH release (%) 0 min: 17.9%
  Inhibition of GH release (%) 30 min: 0%

## CCCC[C@H](NC(=O)[C@@H](NC(=O)[C@H](CC(=O)O)NC(=O)[C@H](CCC(N)=O)NC(=O)[C@H](CC(C)C)NC(=O)[C@H](CC(C)C)NC(=O)[C@H](CCCCN)NC(=O)[C@H](CCCNC(=N)N)NC(=O)[C@H](C)NC(=O)[C@H](CO)NC(=O)[C@H](CC(C)C)NC(=O)[C@H](CCC(N)=O)NC(=O)[C@H](CC)NC(=O)[C@H](CC(C)C)NC(=O)[C@@H](NC(=O)[C@H](CCCCN)NC(=O)[C@H](CCCNC(=N)N)NC(=O)[C@H](Cc1ccc(O)cc1)NC(=O)[C@H](CO)NC(=O)[C@H](CC(N)=O)NC(=O)[C@@H](NC(=O)[C@@H]1Cc2c([nH]c3ccccc23)CN1C(=O)[C@@H](NC(=O)[C@H](C)NC(=O)[C@H](CC(=O)O)NC(=O)[C@@H](CCCNC(=N)N)NC(=O)[C@H](Cc1c[nH]cn1)NC(=O)C(C)C)[C@@H](C)CC)[C@@H](C)O)C(C)C)[C@@H](C)CC)C(=O)N[C@@H](CO)C(=O)N[C@@H](CCCNC(=N)N)C(N)=O [Peptide 10, [Ibu^0 -His^1,D-Arg^2,Tpi^6,Abu^15,Nle^27]hGH-RH(1-29)NH2] (Isobutyryl-H[dR]DAI[Tpi]TNSYRKVL[Abu]QLSARKLLQDI[Nle]SR-NH2)
Dose 100 nM
  Inhibition of GH release (%) 0 min: 29.4%
  Inhibition of GH release (%) 30 min: 49.7%
Dose 300 nM
  Inhibition of GH release (%) 0 min: 2.5%
  Inhibition of GH release (%) 30 min: 21.5%

## CCCC[C@H](NC(=O)[C@@H](NC(=O)[C@H](CC(=O)O)NC(=O)[C@H](CCC(N)=O)NC(=O)[C@H](CC(C)C)NC(=O)[C@H](CC(C)C)NC(=O)[C@H](CCCCN)NC(=O)[C@H](CCCNC(=N)N)NC(=O)[C@H](C)NC(=O)[C@H](CO)NC(=O)[C@H](CC(C)C)NC(=O)[C@H](CCC(N)=O)NC(=O)[C@H](CC)NC(=O)[C@H](CC(C)C)NC(=O)[C@@H](NC(=O)[C@H](CCCCN)NC(=O)[C@H](CCCNC(=N)N)NC(=O)[C@H](Cc1ccc(O)cc1)NC(=O)[C@H](CO)NC(=O)[C@H](CC(N)=O)NC(=O)[C@@H](NC(=O)[C@@H]1Cc2c([nH]c3ccccc23)CN1C(=O)[C@@H](NC(=O)[C@H](C)NC(=O)[C@H](CC(=O)O)NC(=O)[C@@H](CCCNC(=N)N)NC(=O)[C@H](Cc1c[nH]cn1)NC(=O)CI)[C@@H](C)CC)[C@@H](C)O)C(C)C)[C@@H](C)CC)C(=O)N[C@@H](CO)C(=O)N[C@@H](CCCNC(=N)N)C(N)=O [Peptide 11, [IAc^0 -His^1,D-Arg^2,Tpi^6,Abu^15,Nle^27]hGH-RH(1-29)NH2] (X2-H[dR]DAI[Tpi]TNSYRKVL[Abu]QLSARKLLQDI[Nle]SR-NH2)
Dose 300 nM
  Inhibition of GH release (%) 0 min: 15.8%
  Inhibition of GH release (%) 30 min: 22.3%

## CCCC[C@H](NC(=O)[C@@H](NC(=O)[C@H](CC(=O)O)NC(=O)[C@H](CCC(N)=O)NC(=O)[C@H](CC(C)C)NC(=O)[C@H](CC(C)C)NC(=O)[C@H](CCCCN)NC(=O)[C@H](CCCNC(=N)N)NC(=O)[C@H](C)NC(=O)[C@H](CO)NC(=O)[C@H](CC(C)C)NC(=O)[C@H](CCC(N)=O)NC(=O)[C@H](CC)NC(=O)[C@H](CC(C)C)NC(=O)[C@@H](NC(=O)[C@H](CCCCN)NC(=O)[C@H](CCCNC(=N)N)NC(=O)[C@H](Cc1ccc(O)cc1)NC(=O)[C@H](CO)NC(=O)C(C)(C)NC(=O)[C@@H](NC(=O)[C@H](Cc1ccc(Cl)cc1)NC(=O)[C@@H](NC(=O)[C@H](C)NC(=O)[C@H](CC(=O)O)NC(=O)[C@@H](CCCNC(=N)N)NC(=O)[C@H](Cc1ccc(O)cc1)NC(=O)C(C)C)[C@@H](C)CC)[C@@H](C)O)C(C)C)[C@@H](C)CC)C(=O)N[C@@H](CO)C(=O)N[C@@H](CCCNC(=N)N)C(N)=O [Peptide 14, [Ibu^0,D-Arg^2,Phe(pCl)^6,Aib^8,Abu^15, Nle^27]hGH-RH(1-29)NH2] (Isobutyryl-Y[dR]DAI[Phe(4-Cl)]T[Aib]SYRKVL[Abu]QLSARKLLQDI[Nle]SR-NH2)
Dose 100 nM
  Inhibition of GH release (%) 0 min: 38.9%
